The whole screen tested about 420,000 compounds, of which about 64,000 (15%) were called active. Inconclusive means that the source gave no clear call. Such entries were picked first, then a sample of the others. Calls follow the shape of the dose curve; as a rule, active = well fitted inhibition curve with a large enough effect; inconclusive = small, poorly fitted or top-dose-only effect; inactive = flat fitted curve, though single readings scatter. Potencies of inconclusive entries are left out as doubtful fits.
Assay: qHTS for Inhibitors of human tyrosyl-DNA phosphodiesterase 1 (TDP1): qHTS in cells in absence of CPT; also: nearly all actives have a fitted effect of over 55% in size
Details: DT40 Tdp1-/- hTDP1 cells, no CPT, ATP luminescence, 48 h; activity change, negative = growth inhibition: at 46.2 µM (top of the series) unless noted
Outline: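 A cellular qHTS used chicken DT40 cells lacking endogenous Tdp1 but carrying stably transfected human TDP1. Compounds were applied without camptothecin, and cell growth kinetics were judged by ATP-dependent luminescence after ≥48 hr.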
% is scaled to controls: 0 for no effect and ±100 for the full control effect; potency is read from the fitted curve at half-maximal effect; tags tell the direction and shape of the fitted curve.

Compound	Potency	activity change, negative = growth inhibition
CC(C)c1ccc(NC(=O)c2ccc3oc(=O)c(S(=O)(=O)c4ccc(F)cc4)cc3c2)cc1	active: 7.31 µM	–
Cc1ccc(NC(=O)CCSc2nc(C)cc(C)n2)cc1	–	inactive: -19.3%
COc1ccc(Cl)cc1NC(=O)N1CCC(C)CC1	inconclusive [inhibitor, single point]	–
COc1ccc(NC(=O)CN2CCN(c3nc(-c4cccc(OC)c4)cs3)CC2)cc1	inconclusive [inhibitor, single point]	–
CCOCCc1nn2c(=O)cc(COC(=O)COc3ccc(C)c(C)c3)nc2s1	inconclusive [inhibitor, single point]	–
COc1ccc(C(N)c2csc(Nc3ccc(C(=O)NCCCO)cn3)n2)cc1 (configuration not stated)	inconclusive [inhibitor, single point]	–
COc1ccc(C)cc1NC(=O)CCCN1C(=O)C(c2ccccc2)Oc2cccnc21 (configuration not stated)	inconclusive [inhibitor, single point]	–
COc1cc(/C=C2\CCCc3c2nc2ccccc2c3C(=O)O)cc(OC)c1O	inconclusive [inhibitor, single point]	–
COc1ccc(N2CCN(C(=O)CN3c4cccc5cccc(c45)S3(=O)=O)CC2)cc1	inconclusive [inhibitor, partial curve]	–
c1nc(NCCN2CCOCC2)c2cc(-c3ccc4c(c3)OCO4)ccc2n1	inconclusive [inhibitor, partial curve]	–
COc1ccc(CC(=O)Nc2ccccc2C(F)(F)F)cc1S(=O)(=O)N1CCOCC1	–	inactive: -16.8%
Cc1cc(N2C(=O)CC(Cc3ccccc3)C2=O)no1 (configuration not stated)	inconclusive [inhibitor, single point]	–
O=C(c1ccc2c3c(cccc13)CC2)C1CCCN(Cc2ccc(OCCO)cc2)C1 (configuration not stated)	inconclusive [inhibitor, single point]	–
CCC1(CC)NC(=O)N(CC(=O)Nc2sc3c(c2C(N)=O)CCC3)C1=O	–	inactive: -15.1%
COc1ccccc1Oc1ccc2c(c1)C(=O)N(c1cccc3ncccc13)C2=O	–	inconclusive: -32.3% [inhibitor]
CCNC(=S)N(CCc1cccc(C)c1)Cc1cc2cc(OC)c(OC)cc2[nH]c1=O	inconclusive [inhibitor, single point]	–
CCOc1ccccc1N1CCN(CC(=O)Nc2ccccc2C(=O)NC2CC2)CC1	active: 16.4 µM	–
CC1(C(=O)NCc2ccccc2)CSCC(=O)N1Cc1cccs1 (configuration not stated)	inconclusive [inhibitor, single point]	–
O=C(c1csnn1)N1CCC2(CCCN(C(c3ccccc3)c3ccccc3)C2)CC1	inconclusive [inhibitor, single point]	–
CCOc1ccc(S(=O)(=O)NCCc2csc3nc(-c4ccc(OC)c(OC)c4)nn23)cc1	inconclusive [inhibitor, single point]	–
CS(=O)(=O)N(CC(=O)N1CCCCC1)c1sc2c(c1C#N)CCCC2	inconclusive [inhibitor, single point]	–

Compound	Potency	activity change, negative = growth inhibition
Clc1cccc(CSc2nc(NCCc3ccccc3)c3ccccc3n2)c1	inconclusive [inhibitor, single point]	–
CCN1CCN(c2ncc(C(=O)Nc3cc(Cl)ccc3OC)c3ccccc23)CC1	inconclusive [inhibitor, single point]	–
CCN(C(=O)CSc1nc2ccccc2n1CCc1ccccc1)C1CCS(=O)(=O)C1 (configuration not stated)	inconclusive [inhibitor, single point]	–
CC(C)=NNc1nc2c(c(=O)[nH]c(=O)n2C)n1CCCc1ccccc1	inconclusive [inhibitor, single point]	–
COc1ccccc1CNCc1ccc(C(=O)O)s1	–	inactive: 1.39%
Cc1cc(C)nc(N/N=C/c2cc(Br)ccc2O)n1	active: 3.66 µM	–
COc1cccc(NC(=O)c2ccccc2OCC(=O)Nc2ccc(Br)cc2)c1	inconclusive [inhibitor, single point]	–
CC(C)c1ccc(NC(=O)CSc2ncnc3c2sc2ccccc23)cc1	inconclusive [inhibitor, partial curve, poor fit]	–
CN=C(c1ccccc1)c1c(C)cccc1C	–	inactive: -12.2%
C#CCN1C=CC(=O)[C@@H](OC(=O)Nc2ccc(Br)cc2)[C@H]1c1ccccc1Br	inconclusive [inhibitor, single point]	–
O=C(Nc1ccn(CCCN2CCN(Cc3cccc4ccccc34)CC2)c(=O)n1)OCc1ccccc1	active: 18.4 µM	–
CC1CN(CCOc2ccccc2-c2ccccc2)CC(C)O1 (configuration not stated)	inconclusive [inhibitor, single point]	–
Cc1ccc(NC(=O)c2ccc(-n3cncn3)c([N+](=O)[O-])c2)cc1F	inconclusive [inhibitor, single point]	–
COc1ccc(-c2nc(O)c3cnccn23)cc1	inconclusive [inhibitor, single point]	–
CSc1nc(NC(C)(C)C)nc(N2CCOCC2)n1	inconclusive [inhibitor, single point]	–
O=C(Nc1ccc2ccccc2n1)C1CCCCC1	inconclusive [inhibitor, partial curve]	–
CCSc1nc(N)c(C#N)c(-c2ccco2)c1C#N	inconclusive [inhibitor, partial curve, poor fit]	–
CC(c1nnnn1C1CCCCC1)N(Cc1ccccc1)Cc1cccnc1 (configuration not stated)	inconclusive [inhibitor, single point]	–
O=C(O)C1Sc2[nH]c(=O)sc2C2c3ccc(O)cc3OC(=O)C12 (configuration not stated)	–	inactive: -1.44%
CC(C)(C)NC(=O)C(c1ccccc1)n1c(=O)c(-c2ccco2)nc2ccccc21 (configuration not stated)	inconclusive [inhibitor, single point]	–
O=C(C/C=N/OCc1ccc(Cl)cc1)c1cnc(-c2ccccc2)s1	inconclusive [inhibitor, single point]	–

— PubChem BioAssay AID686978 (National Center for Advancing Translational Sciences (NCATS), 2013)
